{"source": "patent US4859584A", "about": "(priority 1986, dated 1989)", "key": {"[1]": {"procedure": "Further, the solubility of cyanine dyes in a medium containing classical salts and osmolarity regulators in which the dyes are soluble was evaluated. […] Thus, reproducible cell labelling with cyanine dyes can be performed in media containing no more than small amounts of classical salts, such as sodium chloride, potassium chloride, calcium chloride, sodium acetate, potassium acetate, sodium sulfate, sodium iodide, choline chloride, or choline iodide, and preferably is performed in a medium in which no classical salts are used to regulate osmolarity."}, "[2]": {"conditions": "in glucose, fructose, ribose, sorbose, sucrose, xylose, glycerol, inositol, xylitol, adonitol, glycine, arginine", "procedure": "Included within compounds referred to herein as cyanine dyes are compounds of the above structure having one or more substitutions provided such substituted compounds are soluble in a cell labelling media for at least as long as needed for labelling and have a sufficiently high membrane partition coefficient to remain associated with labelled cell membranes. […] Solubility in cell labelling media is determined as shown below by dispursing a cyanine dye in the labelling media and, by standard spectrofluorometric techniques, measuring fluorescence intensity over time. Decreasing fluorescence intensity indicates dye precipitation and adherence to vessel walls. Whether the dyes remain associated with cell membranes is determined, for example, using known flow cytometric procedures to monitor fluorescence intensity of red blood cells reinjected into the donor animal after labelling. Essentially constant fluorescence intensities of the labelled cells after reinjection establishes stability of the dye in cell membranes."}}, "data": [{"smiles": "CCCCCCCCCCCCCCN1C(=CC=CC=Cc2sc3ccccc3[n+]2CCCCCCCCCCCCCC)Sc2ccccc21", "note": "[DiSC14 (5)]", "values": [{"measurement": "Solubility in iso-osmotic glucose solution on dilution with sodium chloride solution", "setting": "[1]; dilution with approximately 20% iso-osmotic sodium chloride solution", "value": "reduced significantly"}, {"measurement": "Solubility in iso-osmotic glucose solution on dilution with distilled water", "setting": "[1]; dilution with distilled water", "value": "not significantly affected"}, {"measurement": "Stability of dye solution", "setting": "[2]", "value": "stable in the tested solutions for at least twenty minutes"}]}]}
